The other results are listed elsewhere or left out. One pool of 16,384 single-stranded DNAs met each Rep nickase domain in vitro (3 µM enzyme, 1 h, 37 °C); shown is the middle of each 90-letter strand. A value is the log2 ratio of uncut reads to the pool without enzyme; more negative means more cut, near 0 not cut, and no call is made. Because reads are shares of a total, they shift together, so uncut sequences can rise above 0 when many others are cut.
Legend:
Assay in all cases: uncleaved DNA left, log2 of reads against the no-enzyme library (log2 ratio); higher = less cleavage (more negative = more Rep cleavage of the k-mer); sequences stand for … in CTCGTCCG…ACCGGAGA
[1] = test system: T1, Rep nickase domain of Muscovy duck circovirus
T1 sequence (Rep 1-111, printed without the tag): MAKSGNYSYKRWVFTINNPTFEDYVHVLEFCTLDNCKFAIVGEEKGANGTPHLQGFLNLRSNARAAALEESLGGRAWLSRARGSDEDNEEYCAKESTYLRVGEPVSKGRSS
Experimental: (§1)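 A pool of 90-nt single-stranded DNAs with seven random bases just before the constant AC of the nick site (name = the seven bases) was cut by 3 µM recombinant His6-SUMO-tagged Rep nickase domain (300 nM DNA, 50 mM HEPES pH 8.0, 50 mM NaCl, 1 mM MnCl2, 1 h, 37 °C, three replicates). Uncut DNA was amplified and sequenced.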

[2] = test system: T2, Rep nickase domain of banana bunchy top virus
T2 sequence (Rep 1-94, printed without the tag): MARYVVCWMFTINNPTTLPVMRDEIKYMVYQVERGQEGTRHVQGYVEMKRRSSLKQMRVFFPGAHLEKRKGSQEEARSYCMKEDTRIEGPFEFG
Experimental: as §1

[3] = test system: T3, Rep nickase domain of cabbage leaf curl virus
T3 sequence (Rep 1-116, printed without the tag): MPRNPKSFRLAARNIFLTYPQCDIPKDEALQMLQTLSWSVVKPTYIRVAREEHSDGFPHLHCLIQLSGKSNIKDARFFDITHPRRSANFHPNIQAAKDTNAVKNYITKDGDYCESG
Experimental: as §1

[4] = test system: T4, Rep nickase domain of chickpea chlorotic dwarf virus
T4 sequence (Rep 1-124, printed without the tag): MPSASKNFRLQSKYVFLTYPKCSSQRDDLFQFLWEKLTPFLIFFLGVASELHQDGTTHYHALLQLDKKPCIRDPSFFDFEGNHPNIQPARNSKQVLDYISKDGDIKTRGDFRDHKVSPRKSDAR
Experimental: as §1

[5] = test system: T5, Rep nickase domain of faba bean necrotic yellows virus
T5 sequence (Rep 1-98, printed without the tag): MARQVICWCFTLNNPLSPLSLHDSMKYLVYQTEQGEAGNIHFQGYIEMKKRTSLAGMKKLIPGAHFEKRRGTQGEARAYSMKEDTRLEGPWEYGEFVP
Experimental: as §1

[6] = test system: T6, Rep nickase domain of maize striate mosaic virus
T6 sequence (Rep 1-117, printed without the tag): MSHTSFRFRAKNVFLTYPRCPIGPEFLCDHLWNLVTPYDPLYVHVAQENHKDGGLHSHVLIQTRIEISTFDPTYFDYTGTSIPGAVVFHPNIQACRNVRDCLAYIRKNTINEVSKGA
Experimental: as §1

[7] = test system: T7, Rep nickase domain of porcine circovirus 2
T7 sequence (Rep 2-116, printed without the tag): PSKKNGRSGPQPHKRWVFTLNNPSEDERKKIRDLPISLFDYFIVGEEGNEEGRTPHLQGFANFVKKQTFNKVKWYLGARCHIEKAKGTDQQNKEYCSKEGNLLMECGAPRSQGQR
Experimental: as §1

[8] = test system: T8, Rep nickase domain of tomato yellow leaf curl virus
T8 sequence (Rep 1-136, printed without the tag): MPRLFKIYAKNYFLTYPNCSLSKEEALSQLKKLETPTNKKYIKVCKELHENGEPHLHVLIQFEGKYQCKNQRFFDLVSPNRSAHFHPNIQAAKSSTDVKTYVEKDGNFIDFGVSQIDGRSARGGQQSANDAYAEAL
Experimental: as §1

[9] = test system: T9, Rep nickase domain of wheat dwarf virus
T9 sequence (Rep 1-137, printed without the tag): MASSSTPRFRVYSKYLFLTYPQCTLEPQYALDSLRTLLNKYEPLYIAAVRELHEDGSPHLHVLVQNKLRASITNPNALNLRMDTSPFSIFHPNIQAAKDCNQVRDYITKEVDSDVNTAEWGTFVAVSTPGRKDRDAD
Experimental: as §1

Sequence	uncleaved DNA left (log2) [1]	uncleaved DNA left (log2) [2]	uncleaved DNA left (log2) [3]	uncleaved DNA left (log2) [4]	uncleaved DNA left (log2) [5]	uncleaved DNA left (log2) [6]	uncleaved DNA left (log2) [7]	uncleaved DNA left (log2) [8]	uncleaved DNA left (log2) [9]
GGCAAAG	0.31	0.309	0.266	0.588	0.12	0.144	0.281	0.148	0.354
CAATAAT	-3.67	-2.4	-4.25	-4.07	-0.444	-3.77	-4.2	-1.71	-4.13
GCGCTAA	-0.0198	0.0425	0.0868	0.442	0.135	0.338	-0.068	0.0264	0.0836
TGTCTAC	0.0733	0.0525	0.392	0.185	0.0497	1.51	0.113	0.0251	0.0998
TTCTGAT	-0.202	0.0582	0.212	0.117	0.199	0.895	-2.28	-0.0428	0.111
ACTTATC	-0.083	-0.0567	0.0558	0.206	-0.123	-0.61	0.103	0.0538	0.0547
TGAGTGC	0.0187	-0.00657	-0.365	-0.318	0.00175	-0.901	0.000963	-0.0189	0.00446
CGTGTTA	-0.0789	0.0583	0.0909	0.138	0.0413	1.11	-0.105	0.0619	-0.0719
TCATTGC	-0.131	-0.179	-0.396	0.791	-0.0123	0.186	-0.0382	0.0393	-0.102
ATATCGT	-0.119	-0.0214	-0.552	-1.08	0.0496	-1.08	-0.202	-0.0193	-0.113
TCGAGGG	-0.0597	-0.0778	-0.0594	0.215	0.0123	0.172	0.104	-0.139	-0.0109
GGTCACT	-0.0187	-0.0113	0.601	1.3	-0.0523	2.03	-0.0458	0.0499	0.0492
AAATCAA	0.0312	0.25	0.288	0.39	0.126	0.221	0.131	0.162	0.231
TCGAACT	-0.0456	-0.0668	-0.0146	-2.05	-0.0835	-0.0435	-0.534	-0.00607	0.0696
GTATTGC	-0.0845	-0.12	-0.654	-0.463	-0.00697	-0.987	-0.0339	-0.0182	-0.168
TAAGGCA	0.0645	0.0642	-0.161	-0.724	0.0256	0.092	0.038	0.046	-0.027
GCTTAAC	-0.0593	0.0505	-0.0971	-0.337	0.0247	0.0597	0.0419	-0.0454	0.0265
CGTGCGG	0.0749	0.0161	0.442	1.36	0.0302	1.58	0.0939	-0.0745	0.000507
GCCAGGG	0.0354	0.0181	0.00788	0.248	-0.0628	-0.265	0.185	-0.0682	0.0606
TTAGTGC	-0.049	-0.182	-0.48	-0.824	-0.0416	-1.15	0.00179	-0.0836	-0.176
AAGAAAT	-0.0884	-0.119	0.191	1.12	-0.103	1.45	-3.17	-0.126	0.127
GGGAACG	0.0565	0.0799	0.802	1.86	0.0385	1.96	0.206	0.0237	0.127
GTGACTG	-0.0301	0.0691	0.129	0.819	0.0922	1.79	0.00852	0.0382	0.0963
GTGGAAA	-0.0448	0.0658	0.413	1.29	0.048	2.02	0.0959	0.103	0.242
TGTCGCC	0.0732	0.052	0.106	-0.075	-0.0573	-0.256	0.166	0.114	0.0131
CTCTGCT	-0.695	-0.168	-0.727	-1.44	-0.0832	-1.07	-2.32	-0.113	-0.203
ACAGAGG	0.0106	-0.0669	-0.624	-0.404	0.0353	-0.902	0.23	-0.0914	-0.041
AAACGCA	0.0148	0.0548	-0.208	-1.1	0.0357	-0.669	0.0632	-0.0291	0.00946
AGCAGGC	-0.0672	0.0206	-0.0181	0.0904	-0.00565	-0.566	0.117	-0.09	-0.149
GGTTATT	-2.46	-0.55	0.404	0.68	-0.139	1.87	-2.47	0.134	-0.0416
